The supplement of paper PMC11417369
The other results are listed elsewhere or left out.

Tested on: PF3D7_0420300 AP2 domain 1 (GST-tagged)
Test: gcPBM binding intensity (ln(normalized median fluorescence intensity)); higher = stronger DNA binding
In short: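 The highest Masliner-normalised natural-log median intensity across replicate spots of either probe orientation is reported as binding intensity. GST-tagged P. falciparum DNA-binding domains expressed in E. coli were applied for 1 h to an Agilent 4 × 180k array of primer-extended double-stranded 36-bp intergenic genomic probes plus negative controls, and bound protein was detected with Alexa488 anti-GST antibody and scanned at 488 nm.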

Point of comparison: “ATATAAAGGTTTATTAGTACACATTAGAATACTTTT [XGTACX_site4492]”, “gcPBM binding intensity (ln)” value 9.21. Against it:
- GTTTAGATAAAAGGGCGTACATCTATTTTTGACTAA [XGTACX_site7170] — lower, 9.06
- AAAAAAAAAAAAAAAACACACAATTGAATTATTAAG [CACACA_site2864] — higher, 9.33
- TTTTATTATTAAACATGTACCCATATTATTGTTATG [XGTACX_site5563] — higher, 9.39
- AAAAAAAAATAAAAAAGTACAGGTAAATATATATAT [XGTACX_site5812] — higher, 9.66
- AAAAAAAAAAAATATATATATATATATATAATATTT [GTGCAC_negctrl_site678] — lower, 8.82
- GAATAAATAAAAATATGTACATAAATATATATATAT [XGTACX_site8858] — higher, 9.5
- AAGACAAATATGTATTGTACGAACGCTTTTTAATTA [XGTACX_site1961] — lower, 9.06
- ATACTTTAAAATAATACACACATGGAAAATAAAATT [CACACA_site697] — higher, 9.65
- TTTATAAAATATCTTTCACACATTACTATGTATTAT [CACACA_site5148] — higher, 9.32
- ATAAAAGTTTAATATTGTACGAACATGCGTTTCTAA [XGTACX_site1487] — lower, 8.99
- TAACATTACTCTTAACTCTTTTGGATACCAACTTAT [XGTACX_negctrl_site82] — higher, 9.41
- AAATATTTATAAATTGCACACAAATAATAACATTAT [CACACA_site8737] — higher, 9.4
- ATAATAATATATACATGTACATATATATATATATAT [XGTACX_site3455] — higher, 9.26
- AAATAAAAAGTAAAGCGTACAAATGATCAAATAATA [XGTACX_site7898] — higher, 9.79
- TAATCAACAAAATCTACACACTAAAATGAAATATAA [CACACA_site3749] — higher, 9.55
- AGAAGTGTAAAAGTTACACACACAAACTTGTCATTT [CACACA_site4613] — higher, 9.75
- CCCAGGTGCTCGTAACGTACTTACATCAAATATTAT [XGTACX_site4617] — higher, 9.31
- TATAAATAGATATATACACACTTGTGCAGAATATTA [CACACA_site7112] — higher, 9.41
- AGGCGTGAAATATACGTACACACATTATTTATATTT [CACACA_site2558] — higher, 9.54
- ATATATATACAACAAGCATGCAGTAATTTTTTTTTT [TGCATGCA_site728] — higher, 9.22
- CTATAATAACATAACACACACATGTATTTATAGGTG [CACACA_site6298] — higher, 9.73
- TCCTTATAAAAATACACACAAACTTTAATTAAAACA [CACACA_site3730] — higher, 9.48
- TATTATATTTATTTATGTACACATATACTTAAATAA [XGTACX_site1355] — lower, 9.07
- TGTAATACAGAAAAAAGTACTAAAAAGAAAAGGATT [XGTACX_site3176] — higher, 9.57
- ACACCTATAAATTAAGTGCATTTTTTTTGATGTTAT — higher, 9.28
- TTTTTTTTTTTAATATGTACGTAAAATAAGTTTAAA [XGTACX_site6495] — lower, 8.87
- ACATTCAATCTACTGTGTACATATTAAACTTTGAAA [XGTACX_site2913] — higher, 9.31
- AAAAAATATATATCACGTGGTAATATATATATATAT [XGTACX_negctrl_site252] — higher, 9.22
- TACATCTGTATATAAACACACAACAAAAATGCTTAC [CACACA_site3814] — higher, 9.44
- AATATATAAATAGATACACACATACATACATACATA [CACACA_site4301] — higher, 9.78
- AAATTAAATCCGCACGCACACACACCGATTAATAAA [CACACA_site9321] — higher, 9.85
- AATATTACGTCTGGACGTACAAATCTTTTTCGTGTC [XGTACX_site6644] — lower, 9.05
- AAATTATTGAAATACGCATGTGTTTTTTTTTTTTTT [TGCATGCA_site391] — lower, 9.12
- TTTTACTAGATATATACACACATTATACCTATAGAT [CACACA_site7530] — higher, 9.52
- ACATTTTTTTTTTTTTTTTTTTTCTTACATCATGCA [CACACA_negctrl_site1413] — the same, 9.21
- GAAATATTTTGTTGTGCATGCGACATTAAATAAAAA [TGCATGCA_site331] — lower, 8.98
- CATATTAGGACAAAGTGTACATATATATATATATAT [XGTACX_site1172] — higher, 9.27
- TTATGAAAAAAATACTGTACACAATATGACGAAAGT [XGTACX_site2283] — higher, 9.66
- TTTTAAATAAATCATGCATGCACATATAATTATATT [TGCATGCA_site151] — lower, 9.12
- TATCTCATTTGGAATTGTACTAACAGATACTTGTTT [XGTACX_site2672] — lower, 9.12
- ATTCAATAATTGTTTTTTTTCTTTTTGTTTTTGTTT [GTGCAC_negctrl_site563] — higher, 9.61
- TATACGCATATTTTTACACACATATTTTTTCATATA [CACACA_site2546] — higher, 9.83
- TATATATAATATATATGTACATATGTATAATATTTA [XGTACX_site4400] — lower, 9.16
- CATATTAAAAATACATGTACATATATATTTAATATA [XGTACX_site8580] — lower, 9.08
- GTTTGTAAATATTTTACACACATATTTATTTATATA [CACACA_site6632] — higher, 9.5
- TATAAATATGTGTTTACACACAATAATGAATTAAAA [CACACA_site6555] — higher, 9.32
- GTTAAAATAATATTATGTACATATATATAAAAATAT [XGTACX_site8512] — higher, 9.25
- AACCTCAAATACACAAGTACGTATAATAAGGAACAA [XGTACX_site4304] — higher, 9.5
- ATGGAAAAATGTATATATAAAATAAATATATTATAT [CACACA_negctrl_site1712] — higher, 9.26
- AATATACACATTGTGAAATAACAAAAAAGGCAAAAA [CACACA_negctrl_site1014] — higher, 9.66
- CCTATTTATATATACACACACATATATAAATAAATA [CACACA_site2991] — higher, 9.61
- ATATATATTCATAATACACACATTCTGTAGCATTAT [CACACA_site2067] — higher, 9.51
- ATAGTATCTGGTAGCTGTACGAATGGTAGAGAGTAG [XGTACX_site2548] — higher, 9.51
- TATATATATGTATGATGTACATATATGCATATATAT [XGTACX_site3399] — lower, 9.05
- TTAATTAAATATTATACACACAAAAAAATAATTTTA [CACACA_site96] — higher, 9.27
- AATAAAAAGATATTCTCCTTGTTCCTTTTTTTTAAA [CACACA_negctrl_site1147] — lower, 9.17
- ATTTTAACCAATTATTGTACTTGGTTATTCTTTTTT [XGTACX_site7453] — higher, 9.51
- AATCTATATTGACACACACACAAAAAAAAAAAAAAA [CACACA_site6739] — higher, 9.54
- ATATATATATTAAAGGTGCACAAATAAATATATACA [GTGCAC_site9532] — higher, 9.51
- ATATTTTTTTTCTTCACACACATGAATTATATATAA [CACACA_site3216] — higher, 9.67
- TTAATAACAAAATAAACACACATATATAAATACACA [CACACA_site6849] — higher, 9.86
- TTATATTTTTTTTGTAGTACATTATAGAATACACAC [XGTACX_site969] — higher, 9.24
- AAATGTTGAAATGATACACACATATATATATATATA [CACACA_site2517] — higher, 9.33
- TAAATTCTGTTTAAAAGTACAAATAATATTGTGCCT [XGTACX_site7805] — lower, 8.94
- TTTATTAAAACAAAATGTACACACATATAATTTAAT [XGTACX_site1637] — higher, 9.41
- TTAATCTTCATAAAATGTACAGAAGATTGAATATTC [XGTACX_site6213] — lower, 8.93
- TGAAAGTGTATTAAAGTGCATATTATTTTATCTACC [GTGCAC_site9969] — lower, 9.2
- TACAGAAATTTATATATATATATATATATATATATA [XGTACX_negctrl_site209] — lower, 8.92
- AAATCAAAAACGTTTACACACATTCTTATTTAAATA [CACACA_site790] — higher, 9.41
- TGAGACATGAATGCAAGTACAAAAAGGAGAACAAAA [XGTACX_site6183] — higher, 9.41
- TACATATATTTTTTATGTACTTACTTGTGTGTTTAT [XGTACX_site5126] — higher, 9.5
- TTTTATAATTTCAAAGGATTCTTTAATATTATAAAT [CACACA_negctrl_site1812] — lower, 8.75
- AAAAAAAAAAAAAAAAGTACACACTTTTGCCTACAT [XGTACX_site6583] — higher, 9.34
- AAATTATATATAATAAATAATTTCTTTTTCTAAAAG [CACACA_negctrl_site8] — lower, 8.77
- AATAATTGCTAAAGGTGTACAATACGTATATAAGAA [XGTACX_site4910] — higher, 9.53
- ATTATTCGTTTTAAATGTACTCATATAAACGATAAA [XGTACX_site7866] — lower, 8.84
- CAAAAGAAGGTAAACACACACACACCCATACAAAAA [CACACA_site3765] — higher, 10.1
- AAAATACATATATATATATATAATATTGTTGTTAAA [GTGCAC_negctrl_site519] — lower, 9.13
- CATATTTACATTAAGTGTACTTATGAATATATATAC [XGTACX_site7962] — lower, 9.17
- ATAATATTTTATAATTGTACTTTTTATAAATATAAA [XGTACX_site1940] — lower, 9
- ATATTTTTTTTCATTTGTACACATAAAATTATATAG [XGTACX_site8260] — higher, 9.37
- TTTTTATTTTTAGTAGTGCATTAATCATATGGTCAT [GTGCAC_site9879] — lower, 9.04
- TAAATAAATCCACATACACACACGACGCTAGTATAT [CACACA_site1060] — higher, 9.77
- AATATTTTATTTTTTCTCATTAAAAATTTTTTTTTT [CACACA_negctrl_site364] — lower, 9.01
- GATAGATAATATTTTAGTACATAAACAATTAAATAT [XGTACX_site4125] — higher, 9.3
- AATATATAAACCGAACGTACATATTTTTTATACACC [XGTACX_site2121] — higher, 9.53
- TGTTATATGTTCAAATGTACAAATCATATACATGTT [XGTACX_site3192] — lower, 9.2
